# Source: PubChem BioAssay AID504333 (National Center for Advancing Translational Sciences (NCATS), 2011)
# Screen size: about 360,000 compounds; about 16,000 (4.4%) were called active. This list was built around the results that the source calls inconclusive (neither active nor inactive); the mix of calls is not that of the screen. Calls come from the whole dose curve; as a rule, active = well fitted inhibition curve with a large enough effect; inconclusive = small, poorly fitted or top-dose-only effect; inactive = no such curve, though single readings can be large or run the other way. Potencies beside an inconclusive call are fits to weak or partial responses and may not hold up.
# Molecular target: Bromodomain adjacent to zinc finger domain protein 2B (Homo sapiens) (UniProt Q9UIF8)
# Chain of UniProt Q9UIF8 (Q9UIF8 whole entry, looked up, the tested form may be a part): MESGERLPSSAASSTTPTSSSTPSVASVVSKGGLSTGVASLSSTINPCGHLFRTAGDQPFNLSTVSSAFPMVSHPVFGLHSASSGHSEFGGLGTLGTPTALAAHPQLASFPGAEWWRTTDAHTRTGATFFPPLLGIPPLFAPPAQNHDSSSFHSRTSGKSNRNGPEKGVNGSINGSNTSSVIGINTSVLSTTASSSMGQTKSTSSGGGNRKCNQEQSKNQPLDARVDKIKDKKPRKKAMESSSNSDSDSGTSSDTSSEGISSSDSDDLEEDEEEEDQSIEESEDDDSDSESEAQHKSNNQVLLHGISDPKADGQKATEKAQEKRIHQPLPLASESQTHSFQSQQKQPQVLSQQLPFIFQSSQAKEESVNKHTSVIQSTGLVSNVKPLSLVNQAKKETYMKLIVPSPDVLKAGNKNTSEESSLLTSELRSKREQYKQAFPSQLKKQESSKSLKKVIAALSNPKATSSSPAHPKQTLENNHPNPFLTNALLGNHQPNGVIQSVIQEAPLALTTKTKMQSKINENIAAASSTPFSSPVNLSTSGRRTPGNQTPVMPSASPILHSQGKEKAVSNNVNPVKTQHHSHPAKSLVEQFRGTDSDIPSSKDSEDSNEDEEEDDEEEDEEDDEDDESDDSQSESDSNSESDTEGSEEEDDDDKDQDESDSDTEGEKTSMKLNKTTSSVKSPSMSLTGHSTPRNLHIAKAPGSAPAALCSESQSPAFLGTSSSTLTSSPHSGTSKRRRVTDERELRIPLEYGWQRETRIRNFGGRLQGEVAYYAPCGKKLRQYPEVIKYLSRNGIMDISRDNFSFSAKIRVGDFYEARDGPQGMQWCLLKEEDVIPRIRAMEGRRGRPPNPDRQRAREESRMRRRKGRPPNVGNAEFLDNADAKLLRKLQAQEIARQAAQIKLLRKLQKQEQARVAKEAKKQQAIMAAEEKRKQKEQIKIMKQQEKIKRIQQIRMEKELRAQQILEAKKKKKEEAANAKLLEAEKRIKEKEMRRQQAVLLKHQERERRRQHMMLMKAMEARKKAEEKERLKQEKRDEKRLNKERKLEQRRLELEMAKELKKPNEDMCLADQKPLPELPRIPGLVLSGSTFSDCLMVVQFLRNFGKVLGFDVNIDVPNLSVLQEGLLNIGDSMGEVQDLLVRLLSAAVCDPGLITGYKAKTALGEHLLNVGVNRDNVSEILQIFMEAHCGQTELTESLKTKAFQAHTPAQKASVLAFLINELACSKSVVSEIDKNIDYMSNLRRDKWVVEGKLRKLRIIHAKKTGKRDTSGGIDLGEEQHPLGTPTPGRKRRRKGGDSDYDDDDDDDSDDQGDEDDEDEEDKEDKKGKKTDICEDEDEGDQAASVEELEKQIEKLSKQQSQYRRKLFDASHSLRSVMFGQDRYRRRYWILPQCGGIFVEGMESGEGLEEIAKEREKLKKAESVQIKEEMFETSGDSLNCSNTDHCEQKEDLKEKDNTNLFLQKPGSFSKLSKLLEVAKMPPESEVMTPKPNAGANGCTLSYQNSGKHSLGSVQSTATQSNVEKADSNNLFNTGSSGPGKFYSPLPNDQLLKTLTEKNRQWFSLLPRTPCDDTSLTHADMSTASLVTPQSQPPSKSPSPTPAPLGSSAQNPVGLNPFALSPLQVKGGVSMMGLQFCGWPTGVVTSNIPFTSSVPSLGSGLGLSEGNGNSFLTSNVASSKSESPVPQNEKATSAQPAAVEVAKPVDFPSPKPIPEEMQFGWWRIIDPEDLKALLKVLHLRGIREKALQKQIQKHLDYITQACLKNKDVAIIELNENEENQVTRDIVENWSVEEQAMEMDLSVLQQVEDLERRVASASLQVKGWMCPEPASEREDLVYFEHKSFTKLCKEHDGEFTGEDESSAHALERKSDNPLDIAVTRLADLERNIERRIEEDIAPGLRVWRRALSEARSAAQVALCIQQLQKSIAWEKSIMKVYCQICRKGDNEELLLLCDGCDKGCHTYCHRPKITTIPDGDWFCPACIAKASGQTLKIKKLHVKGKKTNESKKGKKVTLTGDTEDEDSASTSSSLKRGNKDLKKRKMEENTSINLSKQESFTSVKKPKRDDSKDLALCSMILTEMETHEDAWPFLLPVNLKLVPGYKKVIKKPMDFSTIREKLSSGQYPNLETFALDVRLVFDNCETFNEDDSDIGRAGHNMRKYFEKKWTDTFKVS
# Experiment: qHTS Assay for Inhibitors of BAZ2B; note: nearly all actives have a fitted effect of over 60% in size
# Settings: AlphaScreen BAZ2B-H3K14Ac peptide displacement; series mostly up to 114 µM
# Method in brief: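 BAZ2B 50 nM plus b-H3(5-23)K14Ac 50 nM, PBS pH 7.4/0.01% Tween-20, 30 min RT; compound added (max 110 uM), 30 min RT; streptavidin donor/Ni-chelate acceptor beads 10 ug/mL final, 20 min dark; AlphaScreen read.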
# Potency is the fitted concentration of half-maximal effect; tags give direction and shape of the fitted curve.
row,Compound,Potency
1,Nc1c(C=C2C=CC(=O)C=C2)c(=O)nc2snc(SCc3ccccc3)n12,inactive
2,CCN(c1ccccc1)S(=O)(=O)c1ccc(C(=O)Nc2nnc(C3CC3)o2)cc1,active: 79.4 µM
3,COc1cc(OC)c(C2CC(=O)N3CN(c4ccccc4)CSC3=C2C#N)cc1OC (stereo not drawn),active: 25.1 µM
4,COc1cc(OC)c(NS(=O)(=O)c2ccc3oc(=O)c4ncn(C)c4c3c2)cc1Cl,"inconclusive: 100 µM [inhibitor, single point]"
5,CNCc1ccccc1OCc1ccccc1F,inactive
6,COc1ccccc1NS(=O)(=O)c1ccc(N/N=C/c2c(C)nn(-c3ccccc3)c2N2CCCC2)c([N+](=O)[O-])c1,active: 4.47 µM
7,CN(C(=O)CSc1nnc(-c2ccccc2F)o1)C1CCCCC1,inactive
8,c1coc(-c2nc3n(n2)C2(CCCCC2)[C@@H]2CCCC[C@@H]2N3)c1,"inconclusive: 50.1 µM [inhibitor, partial curve]"
9,Cc1ccc(NC(=O)CCN2CCN(CCO)CC2)cc1Br,inactive
10,COc1cc(-n2c(C)nc3cc(C(=O)NCc4ccco4)ccc32)cc(OC)c1OC,active: 56.2 µM
11,COc1ccc(CN2CCSCC2)c(OC)c1C,active: 79.4 µM
12,CCCN(C(=O)c1cc2c(s1)CCC2)c1c(N)n(Cc2ccccc2)c(=O)[nH]c1=O,"inconclusive: 63.1 µM [inhibitor, partial curve, poor fit]"
13,COc1ccc(C2(C(=O)Nc3ccc(C)cc3)CCOCC2)cc1,inactive
14,COc1cc(CN2CCCC(C(=O)c3ccc4c5c(cccc35)CC4)C2)cc(OC)c1O (stereo not drawn),active: 39.8 µM
15,Cc1cnc(NC(=O)c2cc3ccccc3o2)s1,"inconclusive: 79.4 µM [inhibitor, single point]"
16,Cc1ccc2c(c1)c(=O)c(C(=O)c1ccc3c(c1)OCO3)cn2Cc1ccc(Cl)cc1,"inconclusive: 22.4 µM [inhibitor, full curve]"
17,COc1ccccc1N(CC(=O)Nc1ccc2c(c1)OCO2)S(=O)(=O)c1ccccc1,active: 56.2 µM
18,CCOc1cc(NC(=S)Nc2ccccc2)c(OCC)cc1NC(=O)c1ccccc1,"inconclusive: 31.6 µM [inhibitor, full curve]"
19,COc1ccc(NC(=S)NCc2ccc(S(N)(=O)=O)cc2)c(OC)c1,inactive
20,CC(=O)CSc1nnc2cc(C)c3cc(C)cc(C)c3n12,"inconclusive: 79.4 µM [inhibitor, single point]"
21,Cn1cnnc1SCC(=O)c1ccc(O)c(O)c1,"inconclusive: 89.1 µM [inhibitor, single point]"
22,O=C(NNc1ccc(F)cc1)c1c(F)cccc1Cl,inactive
23,Cc1nn(C(C)C(=O)N2CCN(c3ccc(Cl)cc3)CC2)c(=O)c2cc3occc3n12 (stereo not drawn),"inconclusive: 35.5 µM [inhibitor, partial curve]"
24,COc1ccc(CNCCNC(=O)c2cccs2)c(OC)c1OC,active: 56.2 µM

row,Compound,Potency
1,CCCN1CCN(C(=O)CCc2nnc3ccc(N4CCN(c5cccc(OC)c5)CC4)nn23)CC1,inactive
2,COc1cc([N+](=O)[O-])ccc1NC(=O)CSc1nccn1C,"inconclusive: 79.4 µM [inhibitor, single point]"
3,CCOC(=O)Cc1csc(NC(=O)CSc2nnc(C3CC3)n2C)n1,inactive
4,NC(=O)c1c(NC(=O)CSc2nnc(-c3ccco3)n2-c2ccccc2)sc2c1CCC2,active: 50.1 µM
5,CCOc1ccccc1N1CCN(c2nc(N)c(C#N)c(CC#N)c2C#N)CC1,"inconclusive: 79.4 µM [inhibitor, partial curve]"
6,COc1ccc(C(=O)OCc2nc(N)nc(Nc3ccccc3C)n2)cc1OC,"inconclusive: 70.8 µM [inhibitor, single point]"
7,O=C(CSc1nnc(-c2ccncc2)n1Cc1ccco1)c1ccc(Cl)cc1,"inconclusive: 70.8 µM [inhibitor, single point]"
8,Nc1nc(CN2CCN(c3ccccn3)CC2)nc(Nc2ccc(F)cc2)n1,active: 50.1 µM
9,O=C(Nc1ccc(N2CCOCC2)cc1)C1(c2ccc(Cl)cc2)CCC1,"inconclusive: 50.1 µM [inhibitor, partial curve]"
10,Cc1ccc2c(c1)c1c(n2CC(O)CNC(C)(C)C)CCCC1 (stereo not drawn),active: 44.7 µM
11,CCC(C)Nc1nc(N)c([N+](=O)[O-])c(N2CCCCCC2)n1 (stereo not drawn),active: 50.1 µM
12,N#C/C(=C\C1=C(N2CCOCC2)C(=C\c2ccccc2)/CC1)C(=O)Nc1ccccc1F,active: 2 µM
13,O=C(Cc1cccs1)OCC(=O)c1ccco1,"inconclusive: 89.1 µM [inhibitor, single point]"
14,CCN1CCN(CCNC(=O)c2ccc3c(c2)N(Cc2ccc(F)cc2)C(=O)/C(=C/c2ccccc2)S3)CC1,active: 39.8 µM
15,Cc1cc(C)c(S(=O)(=O)Nc2ccc(O)c(Sc3ncn[nH]3)c2)c(C)c1,"inconclusive: 79.4 µM [inhibitor, single point]"
16,CCOc1ccc(OCCN2CCCCC2)cc1,active: 56.2 µM
17,COc1cc(C(=O)c2nccc3cc(OC)c(OC)cc23)c([N+](=O)[O-])cc1OC,"inconclusive: 28.2 µM [inhibitor, full curve]"
18,CCOc1ccccc1NC(=O)NCCc1c[nH]c2ccccc12,"inconclusive: 79.4 µM [inhibitor, single point]"
19,Cc1ccc(-n2cccc2/C=C2\C(=N)N3N=C(c4ccco4)SC3=NC2=O)cc1,active: 35.5 µM
20,COc1ccc(OC)c(C2C(C(C)=O)=C(O)C(=O)N2CCC(=O)O)c1 (stereo not drawn),active: 50.1 µM
21,CCOC(=O)c1c(C)[nH]c(C)c1S(=O)(=O)N1CCN(c2cccc(C(F)(F)F)c2)CC1,inactive
22,CN(CC(=O)Nc1cccc(F)c1)C(=O)c1ccc(N2CCCCC2)c([N+](=O)[O-])c1,"inconclusive: 79.4 µM [inhibitor, single point]"
23,CCOC(=O)c1c(C)oc2c1C(=O)c1ccccc1C2=O,"inconclusive: 20 µM [inhibitor, full curve, poor fit]"
24,CC1=CCC(C(=O)O)C(C(=O)Nc2ccc(-c3nc4ccc(C)cc4s3)cc2)C1 (stereo not drawn),"inconclusive: 79.4 µM [inhibitor, single point]"
